Measured values from the antibiotic and cytotoxicity screens of Wong et al. (2023).
Some of the results follow.

Columns and labels:
HSkMC = human skeletal muscle cells; assay: cytotoxicity call (relative viability < 0.9); details: 10 µM
HepG2 = assay: cytotoxicity call (relative viability < 0.9); details: 10 µM
S. aureus RN4220 = assay: growth inhibition call (relative growth <= 0.2); details: 50 µM

Cc1noc(C)c1S(=O)(=O)Nc1ccc2c(c1)CC(=O)N([C@H](C)CO)C[C@@H](C)[C@H](CN(C)Cc1ccc(C(=O)O)cc1)O2
inactive: cytotoxicity call (HSkMC) | cytotoxicity call (HepG2) | growth inhibition call (S. aureus RN4220)

Cc1ncc(NC(=O)c2cccc(C(F)(F)F)c2)cc1-c1cnc(OC2CCOCC2)c(N2CCOCC2)c1
inactive: cytotoxicity call (HSkMC) | cytotoxicity call (HepG2) | growth inhibition call (S. aureus RN4220)

COC(=O)C[C@H]1CC[C@@H](N)[C@@H](CO)O1
inactive: cytotoxicity call (HSkMC) | cytotoxicity call (HepG2) | growth inhibition call (S. aureus RN4220)
